The test system of assay [1] is RAW-Dual. As to the kind of experiment: NF-kB SEAP reporter activity, fold change vs agonist alone; higher = enhanced NF-kB activity. Summed up: (§1)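 Reporter activity is given as fold change relative to agonist-alone wells. To measure it, 50 nL of library stock was pin-tooled onto RAW-Dual macrophages (50,000 cells/well, DMEM, 384-well plates), a PRR agonist followed 1 h later, and cells stayed at 37 °C, 5% CO2. Twenty hours on, supernatant was assayed for IRF (QuantiLuc luminescence) and NF-κB (QuantiBlue, 620 nm absorbance), and wells under 70% of agonist-control IncuCyte confluency in both mask sets were marked cytotoxic.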

In assay [2] the test system is RAW-Dual. The assay is described as follows: NF-kB SEAP reporter activity, fold change vs agonist alone; cytotoxicity flag (confluency mask): not cytotoxic; higher = enhanced NF-kB activity. In short, it runs like this: as §1
Assay [3] deals with RAW-Dual. As to the kind of experiment: NF-kB SEAP reporter activity, fold change vs agonist alone; cytotoxicity flag (confluency mask): cytotoxic (confluency <70% of control); higher = enhanced NF-kB activity. Summed up: as §1
Where [4] appears, read: library stock concentration (final ~1000-fold dilution): 10 mM, cytotoxicity flag (confluency mask): not cytotoxic, agonist: Imiquimod (TLR7) […].
Setting [5] is: library stock concentration (final ~1000-fold dilution): 10 mM, cytotoxicity flag (confluency mask): not cytotoxic, agonist: MPLA (TLR4) […].
The mark [6] stands for this setting: agonist: ODN 1826 (TLR9) 0.5 ug/mL.
Setting [7] is: agonist: Pam2CSK4 (TLR2/6) 0.1 ug/mL.
Where [8] appears, read: agonist: Pam3CSK4 (TLR2/1) 0.1 ug/mL.

Values joined by “and” are separate entries in the source; they are usually repeats but may differ in a detail not shown here. Identical values can stand only once. Over roughly 2,900 compounds, “NF-kB SEAP reporter activity, fold change vs agonist alone” has its median near 0.99; the highest 2% begin near 2.6. The list shows a part of the results.

With `CCc1ccc(NC(=O)Nc2ccccc2)cc1`, the “NF-kB SEAP reporter activity” value was determined as 0.892 in assay [1] (setting [4]) and 1.01 in assay [1] (setting [5]).
Take `CCc1ccc(NC(=O)Nc2ccccc2)cc1` (library stock concentration (final ~1000-fold dilution): 10 mM): the “NF-kB SEAP reporter activity” value in assay [2] (agonist: LPS (TLR4) 0.1 ug/mL) was 1.12; in assay [2] (setting [6]) it was 0.823; in assay [2] (setting [7]) it was 0.702; in assay [2] (setting [8]) it was 0.652.
`O=C(NOCC1CC1)c1ccc(F)c(F)c1Nc1ccc(I)cc1Cl` (library stock concentration (final ~1000-fold dilution): 10 mM): the “NF-kB SEAP reporter activity” value in assay [2] (agonist: LPS (TLR4) 0.1 ug/mL) was determined as 0.238; in assay [2] (setting [6]), 0.185; in assay [2] (setting [7]), 0.0847; in assay [2] (setting [8]), 0.147.
Take `O=C(NOCC1CC1)c1ccc(F)c(F)c1Nc1ccc(I)cc1Cl`: the figures for the “NF-kB SEAP reporter activity” value in assay [1] (setting [4]) and in assay [1] (setting [5]) were 0.193 and 0.202, respectively.
In the case of `CS(=O)(=O)CCNCc1ccc(-c2ccc3ncnc(Nc4ccc(OCc5cccc(F)c5)c(Cl)c4)c3c2)o1.Cc1ccc(S(=O)(=O)O)cc1.Cc1ccc(S(=O)(=O)O)cc1.O` (library stock concentration (final ~1000-fold dilution): 10 mM), the “NF-kB SEAP reporter activity” value in assay [2] (agonist: LPS (TLR4) 0.1 ug/mL) is 1.96; in assay [2] (setting [6]) it was 0.24; in assay [2] (setting [7]), 0.755; in assay [2] (setting [8]), 0.786.
Regarding `CS(=O)(=O)CCNCc1ccc(-c2ccc3ncnc(Nc4ccc(OCc5cccc(F)c5)c(Cl)c4)c3c2)o1.Cc1ccc(S(=O)(=O)O)cc1.Cc1ccc(S(=O)(=O)O)cc1.O`, the “NF-kB SEAP reporter activity” value in assay [1] (setting [5]) was 1.99.
On to `NC(=O)c1ccccc1O`, for which the “NF-kB SEAP reporter activity” value in assay [1] (setting [4]) was 0.898; in assay [1] (setting [5]) it was 1.07.
`NC(=O)c1ccccc1O` (library stock concentration (final ~1000-fold dilution): 10 mM): the “NF-kB SEAP reporter activity” value turned out to be 1.23 in assay [2] (agonist: LPS (TLR4) 0.1 ug/mL), 0.958 in assay [2] (setting [6]), 1.08 in assay [2] (setting [7]) and 1.08 in assay [2] (setting [8]).
On to `CC(=O)OC1CCC2(C)C(CCC3(C)C2C(=O)C=C2C4C(C)C(C)CCC4(C)CCC23C)C1(C)C(=O)O` (stereo not drawn) (library stock concentration (final ~1000-fold dilution): 10 mM), for which the “NF-kB SEAP reporter activity” value turned out to be 0.924 in assay [2] (agonist: LPS (TLR4) 0.1 ug/mL), 0.962 in assay [2] (setting [6]), 0.723 in assay [2] (setting [7]) and 1.09 in assay [2] (setting [8]).
Regarding `CC(=O)OC1CCC2(C)C(CCC3(C)C2C(=O)C=C2C4C(C)C(C)CCC4(C)CCC23C)C1(C)C(=O)O` (stereo not drawn), the figures for the “NF-kB SEAP reporter activity” value in assay [1] (setting [4]) and in assay [1] (setting [5]) were 1.02 and 0.967, respectively.
For the compound `CC(C)C[C@H](NC(=O)[C@H](Cc1ccccc1)NC(=O)c1cnccn1)B(O)O`, the “NF-kB SEAP reporter activity” value in assay [1] (library stock concentration (final ~1000-fold dilution): 10 mM, cytotoxicity flag (confluency mask): cytotoxic (confluency <70% of control), agonist: Imiquimod (TLR7) […]) came to 2.15; in assay [1] (library stock concentration (final ~1000-fold dilution): 10 mM, cytotoxicity flag (confluency mask): cytotoxic (confluency <70% of control), agonist: MPLA (TLR4) […]), 0.679.
Take `CC(C)C[C@H](NC(=O)[C@H](Cc1ccccc1)NC(=O)c1cnccn1)B(O)O` (library stock concentration (final ~1000-fold dilution): 10 mM): the “NF-kB SEAP reporter activity” value is 0.448 in assay [3] (agonist: LPS (TLR4) 0.1 ug/mL), 1.21 in assay [3] (setting [6]), 0.987 in assay [3] (setting [7]) and 0.481 in assay [3] (setting [8]).
For the compound `COC(=O)C1CC2=CC(=O)CCC2(C)C23OC2CC2(C)C(CCC24CCC(=O)O4)C13` (stereo not drawn), the “NF-kB SEAP reporter activity” value in assay [1] (library stock concentration (final ~1000-fold dilution): 2 mM, cytotoxicity flag (confluency mask): not cytotoxic, agonist: Imiquimod (TLR7) […]) was 1.03; in assay [1] (library stock concentration (final ~1000-fold dilution): 2 mM, cytotoxicity flag (confluency mask): not cytotoxic, agonist: MPLA (TLR4) […]) it was 1.18.
In the case of `COC(=O)C1CC2=CC(=O)CCC2(C)C23OC2CC2(C)C(CCC24CCC(=O)O4)C13` (stereo not drawn) (library stock concentration (final ~1000-fold dilution): 2 mM), the “NF-kB SEAP reporter activity” value came to 1.3 in assay [2] (agonist: LPS (TLR4) 0.1 ug/mL), 1.23 in assay [2] (setting [6]), 1.27 in assay [2] (setting [7]) and 1.12 in assay [2] (setting [8]).
In the case of `CS(=O)(=O)c1ccc(C(=O)Nc2ccc(Cl)c(-c3ccccn3)c2)c(Cl)c1`, the “NF-kB SEAP reporter activity” value was determined as 1.07 in assay [1] (setting [4]) and 0.945 in assay [1] (setting [5]).
On to `CS(=O)(=O)c1ccc(C(=O)Nc2ccc(Cl)c(-c3ccccn3)c2)c(Cl)c1` (library stock concentration (final ~1000-fold dilution): 10 mM), for which the “NF-kB SEAP reporter activity” value in assay [2] (agonist: LPS (TLR4) 0.1 ug/mL) was found to be 1.19; in assay [2] (setting [6]), 1.4; in assay [2] (setting [7]), 0.898; in assay [2] (setting [8]) it was 1.01.
In the case of `COc1ccc(-c2coc3cc(O)ccc3c2=O)cc1`, the figures for the “NF-kB SEAP reporter activity” value in assay [1] (setting [4]) and in assay [1] (setting [5]) were 1.17 and 1.21, respectively.
Regarding `COc1ccc(-c2coc3cc(O)ccc3c2=O)cc1` (library stock concentration (final ~1000-fold dilution): 10 mM), the “NF-kB SEAP reporter activity” value worked out at 1.25 in assay [2] (agonist: LPS (TLR4) 0.1 ug/mL), 1.21 in assay [2] (setting [6]), 1.13 in assay [2] (setting [7]) and 1.22 in assay [2] (setting [8]).
With `CN1CCN(S(=O)(=O)c2ccc(-c3cnc(N)c(C(=O)Nc4cccnc4)n3)cc2)CC1` (library stock concentration (final ~1000-fold dilution): 10 mM), the “NF-kB SEAP reporter activity” value in assay [2] (agonist: LPS (TLR4) 0.1 ug/mL) was determined as 4.28; in assay [2] (setting [6]) it was 2.61; in assay [2] (setting [7]), 1.11; in assay [2] (setting [8]), 2.07.
In the case of `CN1CCN(S(=O)(=O)c2ccc(-c3cnc(N)c(C(=O)Nc4cccnc4)n3)cc2)CC1`, the “NF-kB SEAP reporter activity” value in assay [1] (setting [4]) is 1.5; in assay [1] (setting [5]), 2.5.
Turning to `Nc1ccc2ncnc(NCCc3ccc(Oc4ccccc4)cc3)c2c1` (library stock concentration (final ~1000-fold dilution): 10 mM), the “NF-kB SEAP reporter activity” value in assay [2] (agonist: LPS (TLR4) 0.1 ug/mL) was 1.57 and 1.15; in assay [2] (setting [7]), 0.752 and 0.456; in assay [2] (setting [8]), 1.02 and 0.73.
Take `Nc1ccc2ncnc(NCCc3ccc(Oc4ccccc4)cc3)c2c1`: in assay [1] (setting [4]), the “NF-kB SEAP reporter activity” value stood at 1.46.
As to `O=C(Nc1cc(C(F)(F)F)cc(C(F)(F)F)c1)c1cc(Cl)ccc1O` (library stock concentration (final ~1000-fold dilution): 10 mM), the “NF-kB SEAP reporter activity” value in assay [3] (agonist: LPS (TLR4) 0.1 ug/mL) was 4.53 and 3.94; in assay [3] (setting [6]), 1.84 and 1.74; in assay [3] (setting [7]), 1.25 and 1.03; in assay [3] (setting [8]) it was 1.99 and 1.13.
Turning to `CC1(C)OC(=O)C=CC2(C)C1CC(=O)C1(C)C2CCC2(C)C(c3ccoc3)OC(=O)C3OC321` (stereo not drawn) (library stock concentration (final ~1000-fold dilution): 10 mM), the “NF-kB SEAP reporter activity” value in assay [2] (agonist: LPS (TLR4) 0.1 ug/mL) was found to be 1.04; in assay [2] (setting [6]), 0.875; in assay [2] (setting [7]) it was 1.02; in assay [2] (setting [8]) it was 1.08.
In the case of `CC1(C)OC(=O)C=CC2(C)C1CC(=O)C1(C)C2CCC2(C)C(c3ccoc3)OC(=O)C3OC321` (stereo not drawn), the “NF-kB SEAP reporter activity” value in assay [1] (setting [4]) was 0.98; in assay [1] (setting [5]), 1.03.
